This note sets out measurements from a collection of fitness landscapes (doi:10.1126/science.1257360).

Some of the results follow.

To fix the notation:
B1: PhoQ; a variant is named by its letters at X, in order, P23837 (parent)
chain: MKKLLRLFFPLSLRVRFLLATAAVVLVLSLAYGMVALIGYSVSFDKTTFRLLRGESNLFYTLAKWENNKLHVELPENIDKQSPTMTLIYDENGQLLWAQRDVPWLMKMIQPDWLKSNGFHEIEADVNDTSLLLSGDHSIQQQLQEVREDDDDAEMTHSVAVNVYPATSRMPKLTIVVVDTIPVELKSSYMVWSWFIYVLSANLLLVIPLLWVAAWWSLRPIEALAKEVRELEEHNRELLNPATTRELTSLVRNLNRLLKSERERYDKYRTTLTDLTHSLKTPLXXLQXXLRSLRSEKMSVSDAEPVMLEQISRISQQIGYYLHRASMRGGTLLSRELHPVAPLLDNLTSALNKVYQRKGVNISLDISPEISFVGEQNDFVEVMGNVLDNACKYCLEFVEISARQTDEHLYIVVEDDGPGIPLSKREVIFDRGQRVDTLRPGQGVGLAVAREITEQYEGKIVAGESMLGGARMEVIFGRQHSAPKDE

This test covers variants of B1. Briefly: enrichment ratio after two sorts for PhoP signalling (ratio (wild type AVST 3.29)); higher = more functional. Conditions: with PhoP (E. coli).
Consider TWSN, for which the enrichment ratio was at most 0.25.

On to TGWY, for which the enrichment ratio was 7.1. The same measure for AYMV: 0.333; for KVKG: at most 0.25. To HHLF belongs at most 0.25; to MRKW, at most 0.25; to EFPA, at most 0.25. To ARDT belongs at most 0.25; to LNHI, at most 0.25.

In the case of KRLQ, the enrichment ratio is at most 0.25. To CLDF belongs at most 0.25; to TVAA, 20.7.

Regarding EPVL, the enrichment ratio was at most 0.25. Take LYIG: the enrichment ratio is at most 0.25. On to KKFK, for which the enrichment ratio was at most 0.25. To ERRL belongs at most 0.25; to YTIA, at most 0.25; to IAQL, at most 0.25.

In the case of GPFS, the enrichment ratio was at most 0.25. The same measure for NCVM: at most 0.25; for RCCL: at most 0.25; for IFRR: at most 0.25. Turning to DKEV, the enrichment ratio was at most 0.25. The same measure for WTIN: at most 0.25; for VERW: at most 0.25; for TQME: 17.2. To TKMC belongs 77.6; to FIDW, at most 0.25; to VTVD, at most 0.25. To ILRA belongs at most 0.25; to SRPH, at most 0.25.

Consider ANGT, for which the enrichment ratio came out at 4.82. The same measure for FERH: at most 0.25. The same measure for FYYY: at most 0.25; for WWCS: at most 0.25; for NHPT: at most 0.25.

Consider ESAG, for which the enrichment ratio is at most 0.25. The same measure for SSGP: at most 0.25; for TPDL: at most 0.25; for PCTK: at most 0.25. Regarding NFSR, the enrichment ratio is at most 0.25. The same measure for VVSA: at most 0.25; for AATN: 8.

As to LLLL, the enrichment ratio was at most 0.25. To IWED belongs at most 0.25; to CRLN, at most 0.25; to VRVQ, at most 0.25. To LEGD belongs at most 0.25.

For FNDD, the enrichment ratio was at most 0.25.

As to GQAV, the enrichment ratio is at most 0.25. To MMIW belongs at most 0.25. Turning to WFTQ, the enrichment ratio was at most 0.25.

Take PPWM: the enrichment ratio is at most 0.25. To YIAK belongs at most 0.25; to YECE, at most 0.25; to RYQC, at most 0.25. To AWNH belongs at most 0.25; to IHPN, at most 0.25. To DKPE belongs at most 0.25. With IQTI, the enrichment ratio was at most 0.25. For the variant PKEL, the enrichment ratio is at most 0.25. For the variant LNQW, the enrichment ratio was at most 0.25. With TIVR, the enrichment ratio was at most 0.25. To YLPI belongs at most 0.25; to NLRN, at most 0.25; to IQWF, at most 0.25.

Consider SFIA, for which the enrichment ratio was at most 0.25.

In the case of NNDF, the enrichment ratio is at most 0.25. To MQSG belongs 1.28; to LIII, at most 0.25; to RPWY, at most 0.25.

As to DWIN, the enrichment ratio is at most 0.25. To GENG belongs at most 0.25; to YYVA, at most 0.25; to DQAS, at most 0.25. To ITYS belongs at most 0.25; to FAKV, 0.3; to GDGI, at most 0.25.

Regarding RVVA, the enrichment ratio was at most 0.25. For the variant MILT, the enrichment ratio is at most 0.25. To GDQK belongs at most 0.25; to LKNK, at most 0.25. To TLKI belongs at most 0.25.

Turning to SENP, the enrichment ratio is at most 0.25. To GIYF belongs at most 0.25. For the variant HDKY, the enrichment ratio was at most 0.25. The same measure for SFND: at most 0.25; for IGAY: at most 0.25; for MKST: at most 0.25.

Turning to TKFC, the enrichment ratio was at most 0.25.

For the variant YEWA, the enrichment ratio was at most 0.25. To MTRI belongs at most 0.25. The same measure for KCLY: at most 0.25. On to RAFP, for which the enrichment ratio was at most 0.25. The same measure for QEWI: 4.11; for DDSH: at most 0.25. Turning to CSVL, the enrichment ratio is at most 0.25. To PTDG belongs at most 0.25.

In the case of PEAP, the enrichment ratio was at most 0.25. To STPG belongs at most 0.25. The same measure for RDRC: at most 0.25; for QFYM: at most 0.25. The same measure for ASVC: 5.25. As to LETY, the enrichment ratio was at most 0.25. The same measure for TAVY: 0.402; for IAHE: at most 0.25. To SITR belongs 11.4. Consider KFWT, for which the enrichment ratio is at most 0.25. To NCGF belongs at most 0.25; to VCNK, at most 0.25. On to WFWS, for which the enrichment ratio was at most 0.25. As to YLKG, the enrichment ratio was at most 0.25. The same measure for HSFI: at most 0.25; for SNNF: 6.15; for EALQ: at most 0.25. Take LTHI: the enrichment ratio is at most 0.25. On to NEGW, for which the enrichment ratio is at most 0.25.

On to HVYS, for which the enrichment ratio is at most 0.25.

For the variant IGFV, the enrichment ratio was at most 0.25. As to SAAP, the enrichment ratio was at most 0.25.

Regarding VYYW, the enrichment ratio is at most 0.25. The same measure for GQFR: at most 0.25. The same measure for WLQL: at most 0.25; for EFVD: at most 0.25; for NTNG: at most 0.25. Consider DRVS, for which the enrichment ratio is at most 0.25. Consider RHPK, for which the enrichment ratio was at most 0.25.

As for YPKD, the enrichment ratio is at most 0.25. Regarding WTKI, the enrichment ratio was at most 0.25.

As for WAIP, the enrichment ratio is at most 0.25. To IFWN belongs at most 0.25; to WHQA, at most 0.25. Regarding WVVH, the enrichment ratio is at most 0.25. To ISFI belongs at most 0.25; to QVYR, at most 0.25. To YDCS belongs at most 0.25. The same measure for KTSQ: at most 0.25; for IHLC: at most 0.25. Consider NCAV, for which the enrichment ratio was at most 0.25. For the variant QFDA, the enrichment ratio was at most 0.25. To AIKL belongs at most 0.25; to KCSC, at most 0.25. To LEQA belongs at most 0.25; to SMPN, at most 0.25; to KAFE, at most 0.25.

As to ELWG, the enrichment ratio was at most 0.25. To HEPM belongs at most 0.25; to NAKY, at most 0.25; to HSMI, 17.4.

Consider IECI, for which the enrichment ratio is at most 0.25. To NQWP belongs at most 0.25; to RIGC, at most 0.25; to YEQI, at most 0.25.
